# The other results are listed elsewhere or left out.
# T1: UNK ZnF1-3 (human, UniProt Q9C0B0 31-174)
# T1 sequence: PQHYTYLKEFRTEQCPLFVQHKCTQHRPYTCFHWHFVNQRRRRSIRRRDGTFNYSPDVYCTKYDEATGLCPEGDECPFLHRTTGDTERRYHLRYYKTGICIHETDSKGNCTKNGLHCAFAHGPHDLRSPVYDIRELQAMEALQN
# B1: chr15:27661301:27661302:-_ENSMUSG00000022263_ENSMUST00000090247|mus_mus|FALSE|FALSE (ssRNA)
# RNA: GGGAGUUCUACAGUCCGACGAUCCCCACCCCCAACACACACAGAACCAUAAAGCUCACUUGCGAAGUAUGUGCUUUUUCUAUAUAUUUAUUACAUGUAUAACAGAAGUCUUCAUAAAUAGUUGCAGAAAAUGUUAAAGCCACACAACAGAGGAUUGAGCAUCA
# B2: 57920089_57920386_1754_CDS_ENSG00000166987_ENST00000355673|human|control|control (ssRNA)
# RNA: GGGAGUUCUACAGUCCGACGAUCUACUGGGGCUUUGGAGGCAGCUGGUGGGGCAGGGGCACCUGGCACACUGCUGAGGCUGCCACUGGUGGUCCCAGGCAGGGAGGGCUGGAUGGGGUGCCUGGGCUGGGGAGGGCUCCCUGACAACAGAGGAUUGAGCAUCA
# B3: chr4:95690885:95690886:+_ENSMUSG00000028572_ENSMUST00000156910|mus_mus|mus_mus_mus_hu_False|8_88 (ssRNA)
# RNA: GGGAGUUCUACAGUCCGACGAUCUUUAGAAAAUGUUAAAUACCAUGAGCAUGCUAAUUCAAAGGCUUAUUUUAUUUUACCAGAAGUCACAGGCAAGCAGACACUACAAGAAUAUAUGAAAAUGAAACAACAGUGUAUAACUGUCAACAGAGGAUUGAGCAUCA
# B4: chr2:172291668:172291669:+_ENSG00000115827_ENST00000375255|hu_mus|FALSE|FALSE (ssRNA)
# RNA: GGGAGUUCUACAGUCCGACGAUCAACACUGCUGACACAGCACCGGUAAUUGUCAAAAUAUAUUCUUCCUCUCUCAUAGGCUAUAGGUGACUUGGAAUGAGUUGUCCAAACAUUCUUAAAUUUAGUACUCUCCUGGCACACCAGCAACAGAGGAUUGAGCAUCA
# B5: chr11:50112788:50112789:-_ENSMUSG00000020368_ENSMUST00000020637|mus_mus|FALSE|FALSE (ssRNA)
# RNA: GGGAGUUCUACAGUCCGACGAUCGUCGGAUGUCAUGGACCAGAGCUCCAAACCAAUAGCACUGAAAGGAGUCAUCUUAAAAGGUUCUAGGUCUUCAAAGAAAUCUGGAUUUGGUAUUUUCCUUGGUUUCCAGAUUCCCUGGUACAACAGAGGAUUGAGCAUCA
# B6: chr1:39494447:39494448:+_ENSG00000168653_ENST00000372967|hu_mus|hu_hu_hu_mus_False|18_28 (ssRNA)
# RNA: GGGAGUUCUACAGUCCGACGAUCGCACCGAGCGGCGUUCUUAUAGGGCUGUUCUGCGCUUAGGAACAUAAAGUGCCGGUCCAGGCUGAUGCCCAGCUUUUUCUGUAUGUCCAAGAAAGGCAUGGCCCUGCAGUGCCCUUGUCACAACAGAGGAUUGAGCAUCA
# B7: chr2:202488911:202488912:-_ENSG00000155755_ENST00000286196|hu_mus|hu_hu_hu_mus_False|8_38 (ssRNA)
# RNA: GGGAGUUCUACAGUCCGACGAUCAUUGAAACAUUUUUCAUAAUCUCCAGUAGCAUUUCAGCAUUAUGUAACAAAAGCUCAAUUGUAAAUACAUGUAUAUACAUCUUAUACACUUAAAAACACGAGUAAAAAUGGGAGGCGCCACAACAGAGGAUUGAGCAUCA
# B8: chr7:135612270:135612271:-_ENSG00000105887_ENST00000393085|hu_mus|hu_hu_hu_mus_False|18_78 (ssRNA)
# RNA: GGGAGUUCUACAGUCCGACGAUCGUUUUUUUCUGAGAUGUUAAAUAGUACUUCAGUAACAAAACUUACUUAACCUUUUAUUAAUGCGUGUUGUACCAAAAGCAGACAUUUUAGCUUGCUUCCUUUAAAAAUAUUAACAUUAAGCAACAGAGGAUUGAGCAUCA
# B9: chr11:106643243:106643244:-_ENSMUSG00000020719_ENSMUST00000021062|mus_hu|FALSE|FALSE (ssRNA)
# RNA: GGGAGUUCUACAGUCCGACGAUCGCCUGUUGGUUCAUACCAUUGUGCAUAUUUGGAACAUUACUUCCGUAUUGCUGAGUGCUAUCAUAACCAUUCUGGUAAGUCCCUGUUGGAUUACCAGUCCUAAAACUGGUCUGUAUACCACAACAGAGGAUUGAGCAUCA
# B10: chr1:225611761:225611762:-_ENSG00000143815_ENST00000272163|hu_mus|hu_hu_hu_mus_True|48_48 (ssRNA)
# RNA: GGGAGUUCUACAGUCCGACGAUCCCAGGCCAUCGGCCUCUGACCACUUCACCCUCAACAAACUUCCUACUUGGCAUUUUCUAAAAUUAACCUGCGCGCGCUCCGGCGGGAACUCCAGCCACUCCAGGACAGUCACCAGCAGCCCAACAGAGGAUUGAGCAUCA
# B11: chr7:149068622:149068623:-_ENSMUSG00000025139_ENSMUST00000001950|mus_hu|mus_mus_mus_hu_False|78_108 (ssRNA)
# RNA: GGGAGUUCUACAGUCCGACGAUCGUGCAGGUACUGAGUGUGGCUUGUGGUCUGUCCUGUCUGCAGUUUGUUAAUAUCACGGAACAUACCAUCUAGAACGUUCCAGUCCCGCCUGACACCUUCAUUCCCAAUGGAGAAGAAAUCCAACAGAGGAUUGAGCAUCA
# B12: chr7:131071926:131071927:+_ENSG00000128585_ENST00000352689|hu_hu|FALSE|FALSE (ssRNA)
# RNA: GGGAGUUCUACAGUCCGACGAUCUUUCUUCAAAUUGCAAACAUGAGUUUUCUCAUAUUUUCCAAAUGUGAUAUUCUGAACUAUAGCAGGCCUUUCGAGCUUUAGAAUCAAGUACUGGGGAGGAUAGUUGCUCUCUGAAGACCACAACAGAGGAUUGAGCAUCA
# B13: chr11:77340908:77340909:-_ENSG00000074201_ENST00000525064|hu_hu|hu_hu_hu_mus_True|38_48 (ssRNA)
# RNA: GGGAGUUCUACAGUCCGACGAUCGUUUGGAUCCCUGGACACCGCAUGUAAACUAAUGGUGGGGUAUUCCAGUGAGAAUCCUAAUCCAGAGCCAUCUAACCAAGACAGGCGGCUCUCCGCGAUGUAAAGCGUGCCGGUGCCGAGCAACAGAGGAUUGAGCAUCA
# B14: chr5:128440902:128440903:+_ENSG00000066583_ENST00000173527|hu_mus|hu_hu_hu_mus_True|38_58 (ssRNA)
# RNA: GGGAGUUCUACAGUCCGACGAUCUUGAACGGUGCUGCCAAGUCCUUUGGGGUAUUGUUCCGUUAUGAUAACUGGAAUUCCUAAAAUCCGAGCUCCUUGCAACAAUCUCUGUCCCACACUAAUGAUGUCCCCAAAGUAUUUGAUCAACAGAGGAUUGAGCAUCA
# Biological target: T1, UNK ZnF1-3
# Assay: nsRBNS (natural sequence RNA bind-n-seq); RBNS binding buffer (assumed for nsRBNS): 25 mM Tris pH 7.5, 150 mM KCl, 3 mM MgCl2, 0.01% Triton X-100, 500 ug/ml BSA, 20 U/ml SUPERase-In, 4 C; UNK is unkempt and MSI1 is Musashi-1; names of the RNAs are library labels; protein concentration not given here; high values mean tight binding
row,Binder,binding signal [enrichment R]
1,B1,2.22
2,B2,0.793
3,B3,2.2
4,B4,1.42
5,B5,0.688
6,B6,0.733
7,B7,1.08
8,B8,0.492
9,B9,0.516
10,B10,1.62
11,B11,0.883
12,B12,1.09
13,B13,0.845
14,B14,0.983
